The campaign covered roughly 310,000 compounds. About 14,000 (4.5%) showed an effect of 50% or more. Effects have a minus sign here. Some of the results follow.
These compounds were tested against human ether-à-go-go-related gene (hERG) potassium channel (human, UniProt Q12809) (assay: primary screen, population patch clamp on CHO cells stably expressing hERG).
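Further: peak tail current of the secondary pulse compared with the same well before compound.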

Chain of human ether-à-go-go-related gene (hERG) potassium channel (Q12809 whole entry, looked up): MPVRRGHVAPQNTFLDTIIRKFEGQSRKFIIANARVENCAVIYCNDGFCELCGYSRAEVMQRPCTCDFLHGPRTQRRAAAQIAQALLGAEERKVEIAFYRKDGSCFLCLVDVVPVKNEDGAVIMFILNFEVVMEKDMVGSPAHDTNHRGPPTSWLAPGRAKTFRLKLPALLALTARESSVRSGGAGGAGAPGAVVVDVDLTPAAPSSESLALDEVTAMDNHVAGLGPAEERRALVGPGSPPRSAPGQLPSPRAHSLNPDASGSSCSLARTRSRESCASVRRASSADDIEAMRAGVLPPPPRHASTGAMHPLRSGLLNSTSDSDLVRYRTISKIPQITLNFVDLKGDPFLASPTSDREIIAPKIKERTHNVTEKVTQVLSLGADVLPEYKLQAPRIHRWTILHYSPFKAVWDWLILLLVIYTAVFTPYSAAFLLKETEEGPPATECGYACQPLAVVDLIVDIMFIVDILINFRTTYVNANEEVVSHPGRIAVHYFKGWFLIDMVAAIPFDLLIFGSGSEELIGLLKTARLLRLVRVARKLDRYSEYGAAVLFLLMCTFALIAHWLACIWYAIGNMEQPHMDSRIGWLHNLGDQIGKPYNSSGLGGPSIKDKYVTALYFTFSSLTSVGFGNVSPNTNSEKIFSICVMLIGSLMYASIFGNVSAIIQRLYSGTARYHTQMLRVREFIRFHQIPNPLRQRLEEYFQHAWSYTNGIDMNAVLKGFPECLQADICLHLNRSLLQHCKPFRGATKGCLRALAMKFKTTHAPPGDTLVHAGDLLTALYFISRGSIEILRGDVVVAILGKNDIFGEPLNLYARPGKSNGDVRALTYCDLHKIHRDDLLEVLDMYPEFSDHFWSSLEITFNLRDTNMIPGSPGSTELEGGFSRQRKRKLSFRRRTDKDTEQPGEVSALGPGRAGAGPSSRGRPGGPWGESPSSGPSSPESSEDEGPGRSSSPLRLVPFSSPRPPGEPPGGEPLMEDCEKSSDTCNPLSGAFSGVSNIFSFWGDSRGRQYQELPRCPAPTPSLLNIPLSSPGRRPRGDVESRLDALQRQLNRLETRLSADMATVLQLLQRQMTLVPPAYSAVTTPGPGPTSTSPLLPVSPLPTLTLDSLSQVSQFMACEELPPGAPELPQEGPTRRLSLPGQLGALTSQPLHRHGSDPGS

Row | Structure (SMILES) | hERG current change (%, negative = inhibition) at 10uM
1 | COc1cc(C(=O)NCCC(=O)NCc2c(F)cc(F)cc2F)cc(OC)c1OC | 12.9%
2 | Cc1ccc(SCc2cc(=O)[nH]c(Nc3nc(C)c4ccc(C)cc4n3)n2)cc1 | -20.4%
3 | CCCCC1C(=O)NC(=S)NC1=O | 2.83%
4 | C=CCN1C(=O)S/C(=C\c2ccc3c(c2)n(C)c(=O)n3C)C1=O | 5.81%
5 | Cc1cc([N+](=O)[O-])nn1CC(=O)c1ccccc1 | 11.8%
6 | CCOC(=O)C1CCN(C(=O)c2ccc(C)c(S(=O)(=O)N3CCCC3)c2)CC1 | 0.26%
7 | Cc1ccc(NC(=O)COC(=O)CSCC(=O)Nc2cc(C)on2)c(C)c1 | -17.9%
8 | COc1ccc(C(=O)CSc2nnc(-c3cccs3)n2-c2ccccc2)cc1 | 4.83%
9 | CC(=O)NC(Cc1ccc(F)cc1)C(=O)NC1CCN(c2nnnn2-c2ccccc2)CC1 (stereo not shown) | -41%
10 | COc1cccc(/C=N/NC(=O)CNC(=O)c2cccnc2)c1O | 22.9%
11 | CCOc1ccc2c(c1)c(N=Nc1cccc(C(=O)O)c1)c(O)n2C | 3.19%
12 | CC1CCCC(C)N1c1nnc(NC(=O)c2cc(-c3ccc(Br)cc3)on2)s1 (stereo not shown) | -5.29%
13 | CS(=O)Cc1cc(Sc2ccccc2)nc(-c2cccnc2)n1 (stereo not shown) | -20.4%
14 | O=C(NCc1ccncc1)Nc1ccccc1Cl | 5.67%
15 | O=C(O)CCN1C(=O)c2ccc(NC(=O)CCc3ccccc3)cc2C1=O | 16.6%
16 | CC(Sc1nc2ccccc2s1)C(=O)NCc1ccc2c(c1)OCO2 (stereo not shown) | -13.7%
17 | COc1ccc(C(=O)N2CCSCC2)cc1OC1CCN(C(C)=O)CC1 | 12%
18 | CCOC(=O)c1ccc(NC(=O)C(C)NS(=O)(=O)c2ccc(OC)cc2)cc1 (stereo not shown) | 4.16%
19 | COc1ccc(C(=O)CN2C(=O)NC3(CCCCCC3)C2=O)c(OC)c1 | -12.2%
20 | CC(C)c1cc(Br)ccc1OCCN1C(=O)NC(C)(C)C1=O | -7.82%
21 | O=C(Nc1ccccc1C(F)(F)F)c1ncn[nH]1 | 10.9%
22 | COc1ccc(-n2cc(CNC3CCN(C)CC3)c(-c3cccc(F)c3)n2)cc1 | -77.5%
23 | Cc1ccccc1CNC(=O)CCC(=O)N1Cc2ccccc2Oc2ncccc21 | -25.9%
24 | COc1ccc(-n2nc(C(=O)NCCCN3CCCC3=O)c3c4ccccc4n(C)c3c2=O)cc1Cl | 4.58%
25 | CCN(CC)S(=O)(=O)c1cccc(C(=O)Nc2nncs2)c1 | 1.66%
26 | N#C/C(=C/c1ccccc1)c1nn(CCO)c(N)c1C#N | -9.64%
27 | Cc1cccc(-c2noc(Cc3ccccc3)n2)c1 | -11.8%
28 | CCn1c(SCC(=O)c2c(N)n(C3CC3)c(=O)[nH]c2=O)nc2cc(S(N)(=O)=O)ccc21 | 8.9%

Row | Structure (SMILES) | hERG current change (%, negative = inhibition) at 10uM
29 | CC(=O)Nc1ccc(NC(=O)C(C)OC(=O)CCC(=O)c2ccc(F)cc2)cc1 (stereo not shown) | -7.13%
30 | CCN(CC(=O)N1CCN(Cc2ccccc2)CC1)S(=O)(=O)c1ccccc1 | -20.3%
31 | C=CCN1C(=O)C2C(C(=O)NC3CCCCC3)C3C=CC2(O3)C1C(=O)NC1CCCC1 (stereo not shown) | 5.46%
32 | O=C(O)CNC(=O)C(c1ccccc1)c1ccccc1 | 4.42%
33 | O=C(CCNC(=O)Cn1ccc2ccccc2c1=O)NCC1CCCC1c1ccccc1 (stereo not shown) | 16.5%
34 | COC(=O)c1c(C(=O)OC)c(-c2ccc(Br)cc2)n2c1CS(=O)C2 (stereo not shown) | -1.16%
35 | Cc1ccc(C)c(N(CC(=O)NCc2ccccc2)C(=O)c2csnn2)c1 | -14.7%
36 | CC(=O)N1CCc2cc(S(=O)(=O)NC(Cc3ccccc3)C(=O)NC3CCCCCC3)ccc21 (stereo not shown) | -12.6%
37 | COc1ccc2oc(=N)c(C(=O)Nc3ccccc3)cc2c1 | -43.5%
38 | O=C(c1ccc(OCC2CCCO2)cc1)N1CCc2ccccc2C1 (stereo not shown) | -4.28%
39 | O=C(O)CCC(=O)Nc1ccc(OCC(=O)O)cc1 | 5.18%
40 | Cc1ccccc1-n1c(SCC(=O)Nc2ccccc2Cl)nc2n[nH]c(C)c2c1=N | 6.44%
41 | O=S(=O)(/N=C/N1CCOCC1)c1ccc(Cl)cc1 | 6.29%
42 | CCC(C)N(C(=O)COC(=O)c1cc([N+](=O)[O-])ccc1N)C1CCS(=O)(=O)C1 (stereo not shown) | -15.3%
43 | CC(C)C[C@@H]1NC(=O)[C@H](C(C)C)NC(=O)c2cc([N+](=O)[O-])cc(I)c2NCC[C@@H](C(N)=O)NC1=O | -3.38%
44 | COc1ccc(NC(=O)c2ccc(Br)o2)c([N+](=O)[O-])c1 | 6.12%
45 | Cc1ccc(C)c(CSc2ccc3nnc(-c4ccccn4)n3n2)c1 | -76.5%
46 | N#Cc1cc(Oc2ccc3ccccc3c2)c(-n2nnc3ccccc32)cc1C#N | 16.5%
47 | COc1ccc(F)cc1S(=O)(=O)Nc1ccc(C)cc1 | 4.11%
48 | Brc1ccc(-c2cn3ccccc3n2)cc1 | 6.47%
49 | Cc1ccc(NS(=O)(=O)c2cc3c4c(c2)CC(=O)N4CCC3)cc1C | -26.7%
50 | CN1c2ccccc2N(C)C1(C)c1cccc2ccccc12 | 7.03%
51 | COc1cc(CC(=O)Nc2ccc3c(c2)CCC3)cc(OC)c1OC | -0.207%
52 | COc1cc(C(=O)/C=C/c2cccnc2)c([N+](=O)[O-])cc1OC | 11.4%
53 | Cc1onc(-c2ccccc2Cl)c1C(=O)NCCn1ccc2ccccc21 | -26.4%
54 | Cc1cccc(N2CCN(C(=O)C(C)C)CC2)c1C | -12%
55 | O=C(Nc1ccc(OC(F)F)cc1)c1cc(S(=O)(=O)N2CCCCC2)ccc1N1CCOCC1 | -65.8%
